From article PMC12136788
The list shows a part of the results.

T1: UNK ZnF1-3 (human, UniProt Q9C0B0 31-174)
T1 sequence: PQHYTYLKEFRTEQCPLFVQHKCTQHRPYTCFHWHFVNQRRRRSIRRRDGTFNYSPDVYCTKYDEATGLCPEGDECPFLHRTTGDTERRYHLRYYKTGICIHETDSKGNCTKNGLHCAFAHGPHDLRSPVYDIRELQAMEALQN

B1: 63920571_64006334_732_CDS_ENSG00000154001_ENST00000337537|human|control|control (ssRNA)
RNA: GGGAGUUCUACAGUCCGACGAUCGAACAGUUCAGGCUGCUCUGAGGAUGGAACGUCUUUUAGCAGCGGCAGAGGUGUUAACUCAAUAGGCUUGCCUUGAGACCUAAACUGUGAGGAACUUUGCGACCUCUUCUGUCUGGCUUUCAACAGAGGAUUGAGCAUCA
B2: chr3:57646030:57646031:-_ENSMUSG00000027805_ENSMUST00000066882|mus_hu|motif|central (ssRNA)
RNA: GGGAGUUCUACAGUCCGACGAUCUAAAUCUGUACAUUAUCCACAAGGCCCAAACAAUAGAAGCAAAUACUAGAAUGUCCCGGAAGUAGUGCCAUUCGAAAGAAACCCUUAAUAGGUCAGUUAAAAUCCAUCUCACAAUAGCAACAACAGAGGAUUGAGCAUCA
B3: 98563492_98564757_6354_CDS_ENSG00000196367_ENST00000456197|human|control|control (ssRNA)
RNA: GGGAGUUCUACAGUCCGACGAUCACUGGGCAUUUAAUUCAAGGUCUUCCGGAAAGCGUUUUUCUAUGUAAGUCAUCAUCUUCACAAGCAAAAUGGACUUCUCCCGGAGUGUAGGUGUCUGAUUGGCUGCCAUUGGGGAGUUAUCAACAGAGGAUUGAGCAUCA
B4: chr17:32491106:32491107:-_ENSMUSG00000024050_ENSMUST00000163107|mus_hu|motif|central (ssRNA)
RNA: GGGAGUUCUACAGUCCGACGAUCAUCGAUAACCAAAAUGUGGCCACUGAAAAAAGUUAAAAGGUCAAUCAGCUCCUGGCUUCGGGCUGGCCCAGGAUUGCAAAAUAAAAAGAUCCACGUUCCUUAUUCUCUACACAAAACGCGCAACAGAGGAUUGAGCAUCA
B5: chr10:79795341:79795342:+_ENSG00000138326_ENST00000360830|hu_mus|FALSE|FALSE (ssRNA)
RNA: GGGAGUUCUACAGUCCGACGAUCGUGGGUUCUGAAUCCAAAUACAAAGAUGACAUCUGGUGUGGUUUUGUACAUUUUGGCCAGCUUUUCCCGAAUUUCUGUCUUUGGUACUGUUGCCUUCCCAGGAUGAAGGACAUCAAUGACCAACAGAGGAUUGAGCAUCA
B6: chr17:62499352:62499353:-_ENSG00000108654_ENST00000581693|hu_hu|FALSE|FALSE (ssRNA)
RNA: GGGAGUUCUACAGUCCGACGAUCGUCUUAUUUGAUCCACAAUCUUCCUUAUUUGGGGUUCAAAGCCCAUAUCAAGCAUUCUAUCUGCUUCAUCAAGGACAAGGUAGGUUGUUCUUCUCAGAUUGGUUUUUCCACACUCUAAAACAACAGAGGAUUGAGCAUCA
B7: chrX:117043865:117043866:-_ENSG00000003096_ENST00000371882|hu_hu|FALSE|FALSE (ssRNA)
RNA: GGGAGUUCUACAGUCCGACGAUCGCGAAGCCAACGACAGGUAGCCUUAAAGAGCUCAAGUUCAGUACAGUGCUUAAGGCUAUUACUGGAAAGCACGAAGGCAAGACGCUCAAAAGGGAGUUUCAAGAACUCCCCUGUGCUCAGCAACAGAGGAUUGAGCAUCA
B8: 106500355_106501660_140_3pUTR_ENSMUSG00000070436_ENSMUST00000094154|mouse|control|control (ssRNA)
RNA: GGGAGUUCUACAGUCCGACGAUCAUCAUUGCCUGCCUUUUUCAUUCUGGGCCGGGCUGGGCUGCUCCGGGACCGACAGGGCAAUCGCUCCUCAGACAGGCUCUGCUCAGCUCACUGCCCCGGGCCCUGGAUCUAUAUAUGGCUCAACAGAGGAUUGAGCAUCA
B9: chr6:38652254:38652255:-_ENSG00000124767_ENST00000373365|hu_hu|hu_hu_hu_mus_False|48_78 (ssRNA)
RNA: GGGAGUUCUACAGUCCGACGAUCCGAGAACUUCAUAGCAGGGAAGUCAAGCUUCUGGAUUAGCGUCAGUCCAAGAACCCUCGUAUAAAAAUCCAGUGACUUCUUAGGAUCCUUAAUUCUUAGCAUCGUUUGCUGCAGUAGAAACAACAGAGGAUUGAGCAUCA
B10: chr22:19452774:19452775:-_ENSG00000070010_ENST00000399523|hu_hu|hu_hu_hu_mus_False|38_98 (ssRNA)
RNA: GGGAGUUCUACAGUCCGACGAUCCUUCUCAUUGUAGUUGAUGGCAAUCACAUCUCCAGUCGUCAGACAGGCGAAGUUUCUCAAUGCAUUUUCUAAUACGGCUUUGGGGUUGGUAAUAUCCAGGAAGUCUGGGCUCUGAGGCUGCAACAGAGGAUUGAGCAUCA
B11: chr3:10015032:10015033:+_ENSMUSG00000027533_ENSMUST00000029046|mus_mus|mus_mus_mus_hu_True|78_88 (ssRNA)
RNA: GGGAGUUCUACAGUCCGACGAUCGUUUUUACCAUCACAAGUGAUGAUACAGUCUGGCUUGGCCAUGGCGCCCAUUUUUCGCAAAGCUAUUCCCACUCCUAGCUCCUUCAUGUAUUCAUCAAAGCCUUUGCUGUCCACCAGGCGCAACAGAGGAUUGAGCAUCA
B12: chrX:71549400:71549401:+_ENSMUSG00000019087_ENSMUST00000019231|mus_hu|mus_mus_mus_hu_False|8_108 (ssRNA)
RNA: GGGAGUUCUACAGUCCGACGAUCGCAAGGAAGAGGAGGAAGCUCUUCAGUCCAGUGCGCUGCAGGGUGGGAAAGCAACAACACGGACACCGUCCCACCCUCAACCCCCCCACUGGCACAGGGUCACAUCUGGGUCAUCAAAGACAACAGAGGAUUGAGCAUCA
B13: chr3:98531265:98531266:-_ENSG00000057019_ENST00000326840|hu_mus|motif|central (ssRNA)
RNA: GGGAGUUCUACAGUCCGACGAUCUCCGAGCAGUUCCACUUUCAUGGCAAUUUUCUGUUGCCACUGGACAGGGUUCACUCGGAUGAAACGUGCAAUAAUUGGUGGCAAAAAGUUAUUACGAACAUCCUUGUGAUAAUCUUUGUUCAACAGAGGAUUGAGCAUCA
B14: chr7:136912681:136912682:-_ENSG00000105894_ENST00000348225|hu_hu|motif|central (ssRNA)
RNA: GGGAGUUCUACAGUCCGACGAUCAAACGCUACUACAAAAAUUUUCUUUUCUUUUUGUUUUUGCUUAUUGUGUACUUAGCGGUAGAUAAUUUUUGAAUACAAAGCCUACGGUACAUAUAAAUGCAAUAGUUAACUGAUCCUGUUCAACAGAGGAUUGAGCAUCA

Each binder was assayed against T1, UNK ZnF1-3 (assay: nsRBNS (natural sequence RNA bind-n-seq); RBNS binding buffer (assumed for nsRBNS): 25 mM Tris pH 7.5, 150 mM KCl, 3 mM MgCl2, 0.01% Triton X-100, 500 ug/ml BSA, 20 U/ml SUPERase-In, 4 C; UNK is unkempt and MSI1 is Musashi-1; names of the RNAs are library labels; protein concentration not given here; high values mean tight binding).

Row | Binder | binding signal [enrichment R]
1 | B1 | 1.07
2 | B2 | 1.37
3 | B3 | 1.75
4 | B4 | 1.41
5 | B5 | 0.961
6 | B6 | 0.441
7 | B7 | 0.818
8 | B8 | 0.587
9 | B9 | 1.08
10 | B10 | 0.937
11 | B11 | 0.553
12 | B12 | 1.44
13 | B13 | 0.435
14 | B14 | 0.617
